Laboratory results from the supplement of paper PMC3334620.
In all, about 33,000 sequences were measured (“E-score (-0.5 to 0.5)”: median about -0.041, highest 2% from about 0.37 on). This is one part of the list.

Target: T1, Ecm22 (UniProt Q05958)
T1 sequence: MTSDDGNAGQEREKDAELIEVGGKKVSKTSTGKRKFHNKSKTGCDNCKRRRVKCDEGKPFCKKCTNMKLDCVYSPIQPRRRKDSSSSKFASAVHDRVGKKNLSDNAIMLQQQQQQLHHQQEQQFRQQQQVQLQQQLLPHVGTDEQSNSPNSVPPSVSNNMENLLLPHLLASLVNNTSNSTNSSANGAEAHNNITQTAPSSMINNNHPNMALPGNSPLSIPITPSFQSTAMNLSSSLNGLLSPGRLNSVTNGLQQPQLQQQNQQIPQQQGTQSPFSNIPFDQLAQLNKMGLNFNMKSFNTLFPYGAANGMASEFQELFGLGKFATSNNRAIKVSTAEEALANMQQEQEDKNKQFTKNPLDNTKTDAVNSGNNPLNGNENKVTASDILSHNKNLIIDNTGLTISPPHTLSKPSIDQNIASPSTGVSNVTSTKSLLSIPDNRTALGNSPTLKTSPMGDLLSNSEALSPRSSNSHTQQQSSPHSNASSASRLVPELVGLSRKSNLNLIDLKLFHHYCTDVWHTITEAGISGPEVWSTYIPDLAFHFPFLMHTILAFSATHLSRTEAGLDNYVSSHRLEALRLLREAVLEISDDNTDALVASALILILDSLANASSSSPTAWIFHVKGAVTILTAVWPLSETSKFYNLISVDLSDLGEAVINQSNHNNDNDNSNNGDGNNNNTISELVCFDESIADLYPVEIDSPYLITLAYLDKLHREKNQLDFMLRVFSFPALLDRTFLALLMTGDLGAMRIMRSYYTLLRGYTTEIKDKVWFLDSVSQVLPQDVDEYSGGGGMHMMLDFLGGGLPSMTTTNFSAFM
Experiment: PBM E-score (8-mer binding enrichment) (E-score (-0.5 to 0.5)); higher = stronger / more preferred TF binding; most listed sequences are background and not binding sites
Conditions: protein concentration: 200 nM; construct: GST-full length
Protocol: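 Universal 'all 10-mer' protein binding microarrays (Agilent AMADID 015681) probed with GST-tagged S. cerevisiae TFs (full-length or DBD) made by in vitro transcription/translation (PURExpress), about 100-200 nM. Bound TF was detected with fluorescent anti-GST. Each ungapped 8-mer (which stands for itself and its reverse complement) is scored by the PBM enrichment score (E-score), a modified Wilcoxon-Mann-Whitney statistic from -0.5 to +0.5, computed with the Universal PBM Analysis Suite. Scale: above 0.35 generally sequence-specific binding.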

Sequence	PBM E-score
TGGTAAAA	-0.0114
AACATCAA	0.0313
GCGAGTGA	0.275
CGTAGGTC	-0.00765
ATAGAGGG	-0.00139
ACTTCTCC	-0.131
ATACCTAT	-0.00027
TATTGCGA	0.12
CTGGTATA	-0.0939
GGCTTATA	-0.0276
TCCCGCCA	-0.229
ACCGAGTA	0.286
AATCACGC	-0.0404
ATTGGGCG	-0.0468
CTATTTAC	0.0921
ATATATTG	-0.052
GAGCTGAA	-0.0378
AGAGTGCA	-0.0302
GAGTGTCA	-0.0588
TAGACGAA	0.126
AAGAACCC	-0.0304
CCCAATAC	-0.102
ACCATAAA	0.0734
GGAGTGTA	0.0868
ATTTACCC	-0.0622

Sequence	PBM E-score
AACTTGTA	-0.0505
CCCAAGCG	-0.021
GCCCACCA	-0.184
ATTAACAC	0.0461
CTTTGGTA	-0.352
AGGAACGG	0.459
CATAACAG	-0.177
CTTAAAGA	-0.0454
GTCCACGA	-0.19
AGCTAATC	-0.00043
TAGCCAGA	-0.0155
GGAGCTAC	-0.0188
ACGCTCGC	0.27
AGAGTCTG	-0.113
TGTTACAA	0.0528
GAGATCTA	-0.0319
CATATGAA	-0.13
GTACTCGA	0.14
AATTGTAA	-0.0176
AGCCCAGC	0.091
ACAGGGAA	-0.0824
AACAGTGA	-0.127
GTACAGTA	0.194
CCCCCGCA	-0.115
AGTCACAG	0.0191

Sequence	PBM E-score
TTACGCAA	0.115
CAGAAAGG	-0.15
CTGTGTTC	0.0288
AACGCATA	0.227
ACCGACGG	0.196
CGATGGCA	0.0908
CGCAATAG	0.116
TCCGAAGA	0.0982
CAATACCC	-0.109
CAGGGAAG	-0.271
CGGAGAAC	-0.00238
TACGCTCA	0.0718
GCGTCCAA	-0.187
GTGATAAA	-0.031
TAGCACAA	-0.192
TGGCGAAA	0.117
CTTCAATA	-0.0277
ACCTCTCC	-0.163
CTTAATAC	0.0719
CGTCTCAG	-0.109
AAAGATCG	0.158
GAAGGGAA	-0.24
AACTCGAG	-0.0633
GAATTTGA	-0.0637
GAGAATCC	0.0471

Sequence	PBM E-score
TAAGACTA	-0.203
CAGATTAC	-0.154
ACGATGTA	0.314
CAGGGTCC	-0.151
CGATGATA	0.126
CGAGCGTA	0.259
CATAGCTC	-0.132
ACAGTGGA	-0.0755
AGAGGTTG	-0.18
GTACCATA	0.17
AAATAGAC	-0.0415
CGTACGTC	0.356
AGTTCGCG	0.185
ATAAAGCG	0.163
CAGGGTGC	-0.26
AAGCAACA	-0.135
GATGAGAA	-0.0713
CCGTCCGC	-0.141
AACAGAGG	-0.258
ACTCACAC	-0.112
GTCCAAAC	-0.0124
GACGTCCA	-0.161
TATGTTGA	-0.102
CCAGGACA	-0.252
GATGGTCC	-0.0975

Sequence	PBM E-score
ACGCAATA	0.173
GCTCGAAC	0.161
ACACTTAC	0.00534
AGTCAAGG	-0.27
GGCTCCAC	-0.253
GCGAGGAA	0.258
CTAGAACC	-0.0145
ATCCGCAT	0.135
GGGCCGAA	-0.133
CGATCTCA	-0.0854
AAACTTGT	0.0994
CGGTTAGA	0.242
CCCCGAGG	-0.159
AACGCCCG	0.108
CATGAAGC	-0.126
ACATTGCA	-0.0655
ACGTTCTG	0.0273
ATGATCAG	0.0682
TCGCATCA	0.3
GAGTATCA	0.141
CAGTAGTA	0.102
ATGTGAAA	-0.153
ACCACCAA	-0.284
GCTGTAGA	-0.28
CTCAGTGA	-0.182

Sequence	PBM E-score
AAGTGCTC	-0.15
ACAATTCT	-0.0539
CTAACAGC	-0.0675
AACGCAGT	0.168
ATAGCCGA	0.0868
TCGTCCCA	-0.076
ATTTGTAA	-0.0415
AATATATA	0.177
CAGCCCTA	-0.158
CATAGACC	-0.0554
ATGCTGTA	0.0259
GAGTATCC	0.062
GGGTTCAC	-0.0635
GGGATCTA	-0.0574
AGTAATGG	-0.00096
ATGGTTGG	-0.0232
AGGACCCG	-0.0518
ATTTCGTG	0.0706
GAACCTTA	-0.2
CTTCTACA	-0.0781
CGCCAACA	-0.0109
CTTGTAAA	-0.00071
GCAGGGAA	-5e-05
AATCGGAA	0.0232
AGCTTCCT	-0.0503

Sequence	PBM E-score
AAAACCGT	-0.00949
GGGGAGGA	-0.197
GCGTACCC	0.229
ACCTTTAT	-0.179
AGGAGACA	-0.0271
CTGGGTTC	-0.16
GTAAGAGA	0.0595
CAATTCGC	0.0698
GCATCGGC	-0.101
GGCGGAGA	-0.00921
GTCTAAGA	-0.0187
GTAGGTTA	0.0849
GTAATGAC	0.0869
CTCTATTC	0.0634
GTTTTACA	-0.0364
ATCCACGC	-0.0615
ACGTGCTA	0.0993
CACTGCGA	0.073
CTTCTCAA	-0.0793
CGTAGAGA	0.189
CTCGCCGC	-0.0455
AACCCGAG	0.267
